SMILES strings stand for the structures. The campaign covered roughly 360,000 compounds. About 6,000 (1.7%) were called active. Another 8% or so got no clear call; they are omitted. Calls come from the whole dose curve; as a rule, active = well fitted cell-killing curve with a large enough effect; inconclusive = small, poorly fitted or top-dose-only effect, or effect the other way; inactive = flat fitted curve, though single readings scatter. Only a part is listed here, and it is no random draw.
Potency is the fitted concentration of half-maximal effect.

The test can be described thus: qHTS for induction of synthetic lethality in tumor cells producing 2HG: qHTS for the HT-1080-NT fibrosarcoma cell line.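 For activity, negative = less viability: 0% = DMSO-treated cells and -100% = media-only wells without cells.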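 Note: NT is the 2HG producing partner of a matched IDH1 knockdown line; nearly all actives have a fitted effect of over 55% in size.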 The note with it: HT-1080-NT fibrosarcoma viability, CellTiter-Glo ATP luminescence, 48 h; series mostly up to 46.1 µM; activity, negative = less viability: at the top concentration. In short, it runs like this: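 Luminescent CellTiter-Glo readout after 48 hours of compound exposure at 37 degrees C defined viability of HT-1080-NT cells. Activity was normalized to DMSO wells and cell-free media wells; concentration-response curves were fitted and assigned curve classes.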
(In qHTS, concentration-response curves come from the screen itself.)
With `C/C=C(/C)C(=O)OC1c2c(ccc3ccc(=O)oc23)OC(C)(C)C1OC(=O)/C(C)=C\C` (configuration not stated), the “activity, negative = less viability” value is inactive: -18.5%.

Turning to `O=C(O)CNC(=O)/C(=C/c1cccc([N+](=O)[O-])c1)NC(=O)c1ccco1`, the “activity, negative = less viability” value is inactive: 18%. Still for that read-out and setting: next, `CC(C)CC(=O)C(=O)O`: inactive: 18.2%; `CSC(=NS(=O)(=O)c1ccc(N)cc1)NS(=O)(=O)c1cccs1`: inactive: 13.7%. With `C[n+]1cccc(C(=O)O)c1`, the “activity, negative = less viability” value was inactive: 17.6%. Same read-out and setting: next, `COc1ccc(C2c3c(ncn(CCN4CCOCC4)c3=N)Oc3ccc4ccccc4c32)cc1OC` (configuration not stated): inactive: 12.3%; `O=C(/C=C/c1ccc(O)c(O)c1)O[C@@H]1C[C@](O)(C(=O)O)C[C@@H](O)[C@H]1O`: inactive: -1.9%; `COc1ccc(C(=O)N/C(=C/c2ccco2)C(=O)NCc2ccco2)cc1`: inactive: 13.2%. Regarding `CCCCCCN1C[C@@H](O)[C@H](n2cc(COC(=O)c3ccccc3)nn2)C[C@@H]1c1ccc(Cl)cc1`, the “activity, negative = less viability” value is inactive: 4.21%. Same read-out and setting: next, `CCOC(=O)[C@@H]1[C@H]2COc3ccccc3[C@@H]2N2C(=O)N(c3ccc(Cl)cc3)C(=O)[C@@]12C`: inactive: -0.391%. Regarding `O=S(=O)(c1ccc(Cl)cc1)c1snnc1-c1ccccc1`, the Potency was active: 11.6 µM. Consider `C[C@@H]1CN([C@H](C)CO)C(=O)CCCn2nncc2CO[C@@H]1CN(C)C(=O)OCc1ccccc1`, for which the “activity, negative = less viability” value is inactive: -5.08%. Consider `CC(=O)C[C@@H](O)CC(=O)[C@H]1OC(=O)CCCCCCc2ccccc21`, for which the “activity, negative = less viability” value was inactive: -4.07%. Consider `CN(C)/C=C1\C=C(c2ccccc2)OC1=O`, for which the “activity, negative = less viability” value is inactive: 13.5%.

As for `OCC[C@H]1C[C@H](O)[C@@H](O)[C@]2(OCCc3ccccc32)O1`, the “activity, negative = less viability” value was inactive: 6.28%.

As for `O=C(O)C1=C[C@@H](c2ccc3c(c2)OCO3)C[C@@H](OCc2ccc(CO)cc2)O1`, the “activity, negative = less viability” value is inactive: 7.08%. With `COC(=O)c1ccccc1NC(=O)Cn1c(-c2nonc2N)nc2ccccc21`, the Potency is active: 0.708 µM.

For the molecule `CC1(c2ccc(O)cc2)NC(=O)N(c2ccccc2)N1` (configuration not stated), the Potency is active: 5.8 µM. As to `COc1cccc(O[C@@H]2O[C@@H]3COC(C)(C)O[C@H]3[C@H](O)[C@H]2NC(C)=O)c1`, the “activity, negative = less viability” value was inactive: 21.4%. `COc1ccc(-n2ncc3c(N4CCN(Cc5ccccc5)CC4)ncnc32)cc1`: the Potency is active: 14.6 µM. In the case of `COc1ccc(/C=C(/NC(=O)c2ccco2)C(=O)NCc2ccco2)cc1`, the “activity, negative = less viability” value was inactive: 8.36%. In the case of `O=[N+]([O-])c1ccc(O)c(C2CCCCC2)c1`, the Potency is active: 14.6 µM.

Consider `CNc1c2c(nn1C)CCCC2`, for which the “activity, negative = less viability” value is inactive: 9.29%. As to `CCN1/C(=C\C(=S)Nc2ccccc2)Sc2ccccc21`, the Potency was active: 14.6 µM. On to `CCN1CCN(Cc2ccc(NC(=O)c3ccc(C)c(NC(=O)c4cccc5[nH]ccc45)c3)cc2C(F)(F)F)CC1`, for which the “activity, negative = less viability” value was inactive: -14.5%. For `C=CC[C@@H](CC(=O)N[C@H](CO)Cc1ccccc1)C(=O)NC[C@@H](OC(=O)[C@@H](CC=C)Cc1ccc(F)cc1)c1ccccc1`, the “activity, negative = less viability” value is inactive: -2.66%. Regarding `Cc1cccc(COCC(CC(C)C)N2CCN(C(=O)c3ccc(C(C)(C)C)cc3)CCC2=O)c1` (configuration not stated), the “activity, negative = less viability” value was inactive: 0%. For `O=C(O)C1C2C=CC3(CN(C4CCCC4)C(=O)C13)O2` (configuration not stated), the “activity, negative = less viability” value is inactive: -1.65%. As to `COc1cccc(/C=N/Nc2ccc(C(=O)O)cc2)c1O`, the Potency was active: 18.4 µM. As for `C[C@]12C=CC(=O)C=C1CC[C@@H]1[C@@H]2C(=O)C[C@@]2(C)[C@H]1CC[C@]2(O)C(=O)CO`, the Potency entry was “inactive”. With `C=CCC[C@@H](Cc1ccc(F)cc1)C(=O)OC[C@@H](Cc1c[nH]c2ccccc12)NC(=O)[C@@H](CC=C)CC(=O)N[C@@H](CO)Cc1ccccc1`, the “activity, negative = less viability” value was inactive: -0.749%. With `Cc1ccc(NS(=O)(=O)c2cc(-c3n[nH]c(=O)c4ccccc34)ccc2C)cc1`, the Potency is active: 18.4 µM. As to `COc1cc2nc(N3CCN(C(=O)C4CCCO4)CC3)nc(N)c2cc1OC` (configuration not stated), the “activity, negative = less viability” value is inactive: -8.97%. With `O=C1NC[C@H](CCCCN2C[C@H](Cc3ccccc3)N(CCC3CCCCC3)C(=O)C2=O)N(Cc2ccccc2)C1=O`, the “activity, negative = less viability” value is inactive: 21.1%. The same measure, in the same setting: next, `C=CC[C@@H](CC(=O)N(CCO)Cc1ccccc1)C(=O)N[C@H](COC(=O)[C@@H](CC=C)CC(=O)OC(C)(C)C)Cc1ccccc1`: inactive: -14%; `CCOC(=O)/C(=N/Nc1ccc(Br)cc1)N1CC(C)OC(C)C1` (configuration not stated): inactive: -15%. For `O=C(COc1ccccc1C(=O)c1cnn(-c2ccccc2)c1)Nc1ccccc1`, the “activity, negative = less viability” value was inactive: -14.5%. Take `Cc1ccc(C(=O)C[n+]2cc(-c3ccccc3)n3c2CCCCC3)cc1`: the “activity, negative = less viability” value was inactive: -24.6%. Same read-out and setting: the figure for `CC(C)(C)OC(=O)C[C@H]1C/C=C\C[C@@H](CC(=O)NCCO)C(=O)NC[C@@H](c2ccccc2)OC1=O` is inactive: 1.54%. In the case of `CC1=NNC(=O)/C1=C\c1cn(-c2ccccc2)nc1-c1ccc(Cl)cc1`, the Potency was active: 7.31 µM. Turning to `O=C(CCCN1C(=O)/C(=C/c2ccccc2)SC1=S)Nc1ccc(O)cc1`, the “activity, negative = less viability” value is inactive: -10%.

In the case of `Fc1ccc(SCCc2ccccn2)cc1`, the “activity, negative = less viability” value is inactive: 11.2%. In the case of `O=C(NCCCn1ccnc1)/C(=C/c1cccnc1)NC(=O)c1ccco1`, the “activity, negative = less viability” value is inactive: 10.1%. As for `Cc1cc(N2CCN(Cc3nc(-c4ccc(Cl)cc4)oc3C)CC2)cc(C)n1`, the Potency is active: 20.6 µM. In the case of `CN1C2CCC1CC(OC(=O)c1c[nH]c3ccccc13)C2` (configuration not stated), the “activity, negative = less viability” value is inactive: 1.16%. The same measure, in the same setting: next, `COc1ccc([C@@H]2CC(=O)c3c(O)cc(O)cc3O2)cc1O`: inactive: 48.9%. On the same count and under the same terms, next, `CC(=O)OCC(=O)[C@@]1(O)CC[C@H]2[C@@H]3CCC4=CC(=O)CC[C@]4(C)[C@H]3[C@@H](O)C[C@@]21C`: inactive: -7.23%. The same measure, in the same setting: next, `COc1ccc(NC(=O)/C(=C/c2cccs2)NC(=O)c2ccco2)cc1`: inactive: 26.6%. For `NC(CCc1ccccc1)c1csc(Nc2nccc(C(F)(F)F)n2)n1` (configuration not stated), the Potency was active: 16.4 µM. In the case of `OCC[C@H]1C[C@H](O)[C@@H](O)[C@]2(CCCc3ccccc3O2)O1`, the “activity, negative = less viability” value is inactive: -7.64%. Consider `NC(=O)C1=C[C@H](c2csc3ccccc23)C[C@H](OCc2ccc(CO)cc2)O1`, for which the “activity, negative = less viability” value was inactive: -12%. Consider `C/C(N)=C(/C#N)C(=O)CSc1nnc(COc2ccccc2Cl)o1`, for which the “activity, negative = less viability” value is inactive: -1.7%. As to `Cc1ccc(N2C(=O)N3[C@H]4c5ccccc5OC[C@@H]4[C@@H](c4ccccc4)[C@@]3(C)C2=O)cc1`, the “activity, negative = less viability” value was inactive: -1.94%. As to `c1ccc2c(c1)cnc1ccccc12`, the “activity, negative = less viability” value was inactive: 3.08%. Consider `O=[N+]([O-])c1ccc2[nH]cc(S(=O)(=O)N3CCN(c4cccc(Cl)c4)CC3)c2c1`, for which the Potency is active: 20.6 µM.

Turning to `CC(C)C[C@H]1CN([C@@H](Cc2ccccc2)CN2CCC[C@@H]2CN2C(=O)C(=O)NC[C@@H]2Cc2ccc(O)cc2)C(=O)C(=O)N1CC1CCCCC1`, the “activity, negative = less viability” value was inactive: 4.36%.

Turning to `CCOC(=O)[C@@H]1[C@H]2COc3cc(OC)ccc3[C@@H]2N2C(=O)N(c3ccc(C)cc3)C(=O)[C@]12C`, the “activity, negative = less viability” value is inactive: -0.637%.

These data come from PubChem BioAssay AID686970 (National Center for Advancing Translational Sciences (NCATS), 2013).
